First the molecules themselves.
B1: TEV protease; numbered along this chain (parent)
chain: MGESLFKGPRDYNPISSSICHLTNESDGHTTSLYGIGFGPFIITNKHLFRRNNGTLVVQSLHGVFKVKDTTTLQQHLVDGRDMIIIRMPKDFPPFPQKLKFREPQREERICLVTTNFQTKSMSSMVSDTSCTFPSGDGIFWKHWIQTKDGQCGSPLVSTRDGFIVGIHSASNFTNTNNYFTSVPKNFMELLTNQEAQQWVSGWRLNADSVLWGGHKVFMVKPEEPFQPVKEATQL

The variants in this test derive from B1. Nature of the test: raw area under fraction-flipped curve 0-4 h after induction (AUC4h, not background-subtracted), DNA-recorder readout of cleavage of the substrate (dimensionless); higher = more cleavage of the substrate by the protease variant. Conditions: temperature: 34 °C; time window: 0-4 h after rhamnose induction. As to the method:
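In vivo DNA recorder in E. coli TOP10(DE3) ΔrhaA at 34 °C. Each TEVp single-site mutant (parent TEVp 0) is paired with a single-site variant of the 7-mer TEVs (canonical ENLYFQ|S). The substrate sits between flexible linkers in a Bxb1-sfGFP-TEVs-SsrA fusion, so cleavage stabilises Bxb1 and speeds flipping of a recombination array, read by NGS. The value is the raw area under the fraction-flipped curve over 0-4 h after rhamnose induction (AUC4h), with ≥20 reads per time point. It is not background-subtracted; inactive controls average about 0.047.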

The other results are listed elsewhere or left out. Sequences were assembled here from the parent chain. Inactive controls read about 0.05.
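Further: Bxb1 expression induced with 0.2% (w/v) L-rhamnose at OD600 near 0.5, cultures sampled hourly, flipped fraction per protease–substrate barcode pair counted by paired-end Illumina sequencing.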

Take MGESLFKGPRDYNPISHSICHLTNESDGHTTSLYGIGFGPFIITNKHLFRRNNGTLVVQSLHGVFKVKDTTTLQQHLVDGRDMIIIRMPKDFPPFPQKLKFREPQREERICLVTTNFQTKSMSSMVSDTSCTFPSGDGIFWKHWIQTKDGQCGSPLVSTRDGFIVGIHSASNFTNTNNYFTSVPKNFMELLTNQEAQQWVSGWRLNADSVLWGGHKVFMVKPEEPFQPVKEATQL [S17H]: the “area with substrate ENAYFQS” value came out at 0.0715, the “area with substrate ENCYFQS” value turned out to be 0.0417, the “area with substrate ENDYFQS” value is 0.0572 and the “area with substrate ENEYFQS” value amounted to 0.0522. In addition, the “area with substrate ENFYFQS” value was found to be 0.0652, the “area with substrate ENGYFQS” value was 0.0671, the “area with substrate ENHYFQS” value came to 0.0598 and the “area with substrate ENMYFQS” value worked out at 0.0921. The “area with substrate ENNYFQS” value is 0.06, the “area with substrate ENPYFQS” value was found to be 0.0618, the “area with substrate ENQYFQS” value was determined as 0.0616 and the “area with substrate ENRYFQS” value worked out at 0.0487. Further, the “area with substrate ENSYFQS” value is 0.0622, the “area with substrate ENTYFQS” value turned out to be 0.0518, the “area with substrate ENVYFQS” value is 0.0658 and the “area with substrate ENYYFQS” value is 0.0671.

With MGESLFKGPRDYNPISVSICHLTNESDGHTTSLYGIGFGPFIITNKHLFRRNNGTLVVQSLHGVFKVKDTTTLQQHLVDGRDMIIIRMPKDFPPFPQKLKFREPQREERICLVTTNFQTKSMSSMVSDTSCTFPSGDGIFWKHWIQTKDGQCGSPLVSTRDGFIVGIHSASNFTNTNNYFTSVPKNFMELLTNQEAQQWVSGWRLNADSVLWGGHKVFMVKPEEPFQPVKEATQL [S17V], the “area with substrate ENAYFQS” value was found to be 0.0538, the “area with substrate ENCYFQS” value is 0.0594, the “area with substrate ENDYFQS” value is 0.0547 and the “area with substrate ENEYFQS” value was 0.0738. Also, the “area with substrate ENFYFQS” value came out at 0.0639, the “area with substrate ENGYFQS” value turned out to be 0.0583, the “area with substrate ENHYFQS” value amounted to 0.0569 and the “area with substrate ENIYFQS” value is 0.108. Besides, the “area with substrate ENKYFQS” value amounted to 0.0607, the “area with substrate ENMYFQS” value was determined as 0.0669, the “area with substrate ENNYFQS” value turned out to be 0.0567 and the “area with substrate ENPYFQS” value was determined as 0.0848. Also, the “area with substrate ENQYFQS” value was 0.049, the “area with substrate ENRYFQS” value is 0.0489, the “area with substrate ENSYFQS” value was found to be 0.0446 and the “area with substrate ENTYFQS” value is 0.0795. In addition, the “area with substrate ENVYFQS” value was 0.0864 and the “area with substrate ENYYFQS” value was found to be 0.0721.

Consider MGESLFKGPRDYNPISRSICHLTNESDGHTTSLYGIGFGPFIITNKHLFRRNNGTLVVQSLHGVFKVKDTTTLQQHLVDGRDMIIIRMPKDFPPFPQKLKFREPQREERICLVTTNFQTKSMSSMVSDTSCTFPSGDGIFWKHWIQTKDGQCGSPLVSTRDGFIVGIHSASNFTNTNNYFTSVPKNFMELLTNQEAQQWVSGWRLNADSVLWGGHKVFMVKPEEPFQPVKEATQL [S17R], for which the “area with substrate ENAYFQS” value stood at 0.0897, the “area with substrate ENCYFQS” value was determined as 0.0668, the “area with substrate ENDYFQS” value turned out to be 0.061 and the “area with substrate ENEYFQS” value was 0.0568. The “area with substrate ENFYFQS” value was determined as 0.0558, the “area with substrate ENGYFQS” value is 0.0638, the “area with substrate ENHYFQS” value was 0.0518 and the “area with substrate ENIYFQS” value turned out to be 0.105. Besides, the “area with substrate ENNYFQS” value was determined as 0.0552, the “area with substrate ENQYFQS” value was found to be 0.0531, the “area with substrate ENRYFQS” value came out at 0.0597 and the “area with substrate ENSYFQS” value worked out at 0.0732. Besides, the “area with substrate ENTYFQS” value came to 0.0674 and the “area with substrate ENVYFQS” value came out at 0.0699.

On to MGESLFKGPRDYNPISSSFCHLTNESDGHTTSLYGIGFGPFIITNKHLFRRNNGTLVVQSLHGVFKVKDTTTLQQHLVDGRDMIIIRMPKDFPPFPQKLKFREPQREERICLVTTNFQTKSMSSMVSDTSCTFPSGDGIFWKHWIQTKDGQCGSPLVSTRDGFIVGIHSASNFTNTNNYFTSVPKNFMELLTNQEAQQWVSGWRLNADSVLWGGHKVFMVKPEEPFQPVKEATQL [I19F], for which the “area with substrate ENAYFQS” value was found to be 0.0573, the “area with substrate ENCYFQS” value stood at 0.065, the “area with substrate ENDYFQS” value was found to be 0.0601 and the “area with substrate ENEYFQS” value turned out to be 0.0534. The “area with substrate ENGYFQS” value came to 0.0566, the “area with substrate ENHYFQS” value was 0.0677, the “area with substrate ENIYFQS” value was 0.0729 and the “area with substrate ENMYFQS” value turned out to be 0.0667. For the same variant, the “area with substrate ENNYFQS” value amounted to 0.0581, the “area with substrate ENQYFQS” value turned out to be 0.0555, the “area with substrate ENRYFQS” value amounted to 0.0695 and the “area with substrate ENSYFQS” value amounted to 0.0626. Besides, the “area with substrate ENTYFQS” value was found to be 0.0589, the “area with substrate ENVYFQS” value came out at 0.0701, the “area with substrate ENWYFQS” value is 0.0549 and the “area with substrate ENYYFQS” value came to 0.0492.

For MGESLFKGPRDYNPISSSLCHLTNESDGHTTSLYGIGFGPFIITNKHLFRRNNGTLVVQSLHGVFKVKDTTTLQQHLVDGRDMIIIRMPKDFPPFPQKLKFREPQREERICLVTTNFQTKSMSSMVSDTSCTFPSGDGIFWKHWIQTKDGQCGSPLVSTRDGFIVGIHSASNFTNTNNYFTSVPKNFMELLTNQEAQQWVSGWRLNADSVLWGGHKVFMVKPEEPFQPVKEATQL [I19L], the “area with substrate ENAYFQS” value amounted to 0.0606, the “area with substrate ENCYFQS” value is 0.0724, the “area with substrate ENDYFQS” value was found to be 0.0585 and the “area with substrate ENEYFQS” value was 0.0602. Besides, the “area with substrate ENHYFQS” value was determined as 0.059, the “area with substrate ENKYFQS” value was determined as 0.0649, the “area with substrate ENMYFQS” value turned out to be 0.0945 and the “area with substrate ENPYFQS” value was 0.0728. The “area with substrate ENQYFQS” value came out at 0.0609, the “area with substrate ENRYFQS” value is 0.0676, the “area with substrate ENSYFQS” value amounted to 0.0858 and the “area with substrate ENTYFQS” value worked out at 0.0579. Besides, the “area with substrate ENVYFQS” value was 0.0804.

For MGESLFKGPRDYNPISSSECHLTNESDGHTTSLYGIGFGPFIITNKHLFRRNNGTLVVQSLHGVFKVKDTTTLQQHLVDGRDMIIIRMPKDFPPFPQKLKFREPQREERICLVTTNFQTKSMSSMVSDTSCTFPSGDGIFWKHWIQTKDGQCGSPLVSTRDGFIVGIHSASNFTNTNNYFTSVPKNFMELLTNQEAQQWVSGWRLNADSVLWGGHKVFMVKPEEPFQPVKEATQL [I19E], the “area with substrate ENAYFQS” value came out at 0.0494, the “area with substrate ENCYFQS” value stood at 0.0517, the “area with substrate ENDYFQS” value turned out to be 0.0498 and the “area with substrate ENEYFQS” value came out at 0.0514. Also, the “area with substrate ENFYFQS” value was 0.0387, the “area with substrate ENHYFQS” value came out at 0.0415, the “area with substrate ENIYFQS” value was determined as 0.074 and the “area with substrate ENKYFQS” value stood at 0.0363. The “area with substrate ENMYFQS” value worked out at 0.0535, the “area with substrate ENPYFQS” value stood at 0.0325, the “area with substrate ENQYFQS” value is 0.0467 and the “area with substrate ENRYFQS” value amounted to 0.035. Also, the “area with substrate ENSYFQS” value was 0.051, the “area with substrate ENTYFQS” value came out at 0.0028, the “area with substrate ENVYFQS” value is 0.055 and the “area with substrate ENWYFQS” value was 0.0372.

For the variant MGESLFKGPRDYNPISSLICHLTNESDGHTTSLYGIGFGPFIITNKHLFRRNNGTLVVQSLHGVFKVKDTTTLQQHLVDGRDMIIIRMPKDFPPFPQKLKFREPQREERICLVTTNFQTKSMSSMVSDTSCTFPSGDGIFWKHWIQTKDGQCGSPLVSTRDGFIVGIHSASNFTNTNNYFTSVPKNFMELLTNQEAQQWVSGWRLNADSVLWGGHKVFMVKPEEPFQPVKEATQL [S18L], the “area with substrate ENAYFQS” value is 0.0248, the “area with substrate ENCYFQS” value stood at 0.063, the “area with substrate ENDYFQS” value amounted to 0.0566 and the “area with substrate ENEYFQS” value turned out to be 0.061. The “area with substrate ENGYFQS” value was 0.0809, the “area with substrate ENHYFQS” value is 0.0557, the “area with substrate ENIYFQS” value came to 0.0948 and the “area with substrate ENKYFQS” value stood at 0.0551. Further, the “area with substrate ENNYFQS” value turned out to be 0.0624, the “area with substrate ENQYFQS” value is 0.0537, the “area with substrate ENSYFQS” value came to 0.0662 and the “area with substrate ENTYFQS” value was found to be 0.0559. Moreover, the “area with substrate ENVYFQS” value is 0.0707 and the “area with substrate ENYYFQS” value came to 0.0627.

MGESLFKGPRDYNPISSIICHLTNESDGHTTSLYGIGFGPFIITNKHLFRRNNGTLVVQSLHGVFKVKDTTTLQQHLVDGRDMIIIRMPKDFPPFPQKLKFREPQREERICLVTTNFQTKSMSSMVSDTSCTFPSGDGIFWKHWIQTKDGQCGSPLVSTRDGFIVGIHSASNFTNTNNYFTSVPKNFMELLTNQEAQQWVSGWRLNADSVLWGGHKVFMVKPEEPFQPVKEATQL [S18I]: the “area with substrate ENAYFQS” value worked out at 0.061, the “area with substrate ENCYFQS” value was 0.0472, the “area with substrate ENDYFQS” value stood at 0.0637 and the “area with substrate ENEYFQS” value was determined as 0.0551. For the same variant, the “area with substrate ENFYFQS” value amounted to 0.0636, the “area with substrate ENHYFQS” value is 0.0548, the “area with substrate ENIYFQS” value came out at 0.108 and the “area with substrate ENMYFQS” value came out at 0.0794. The “area with substrate ENNYFQS” value stood at 0.0441, the “area with substrate ENPYFQS” value came to 0.0514, the “area with substrate ENQYFQS” value came to 0.0553 and the “area with substrate ENSYFQS” value is 0.0557. Further, the “area with substrate ENTYFQS” value worked out at 0.0554, the “area with substrate ENVYFQS” value was found to be 0.0627, the “area with substrate ENWYFQS” value amounted to 0 and the “area with substrate ENYYFQS” value was determined as 0.0593.

Values taken from the supplement of paper PMC12217912.
